According to publication PMC9911399, “Two distinct binding modes provide the RNA-binding protein RbFox with extraordinary sequence specificity”:
Changes are numbered by the printed parent chain; changes in the protein carry UniProt numbers. This is one part of the list.

T1: RBFOX1 RRM (Homo sapiens, UniProt Q9NWB1 109-208)
T1 sequence: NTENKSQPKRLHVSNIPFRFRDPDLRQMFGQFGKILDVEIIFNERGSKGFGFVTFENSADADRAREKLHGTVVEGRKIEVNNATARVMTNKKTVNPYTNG

B1: AGGAAAA (DNA:RNA)
RNA: GGGAGACCGGAAUUCAGAUUGUCCAGGAAAAUUAAAUCCCGUCGUAGCCACCA
DNA 1: CAATCTGAATTCCGGTCTCCC
DNA 2: TGGTGGCTACGACGGGATT
B2: GUUAUGC (DNA:RNA)
RNA: B1 RNA with A25G, G26U, G27U, A29U, A30G, A31C
DNA 1: CAATCTGAATTCCGGTCTCCC
DNA 2: TGGTGGCTACGACGGGATT
B3: GUUAGAG (DNA:RNA)
RNA: B1 RNA with A25G, G26U, G27U, A29G, A31G
DNA 1: CAATCTGAATTCCGGTCTCCC
DNA 2: TGGTGGCTACGACGGGATT
B4: CCAAGGU (DNA:RNA)
RNA: B1 RNA with A25C, G26C, G27A, A29G, A30G, A31U
DNA 1: CAATCTGAATTCCGGTCTCCC
DNA 2: TGGTGGCTACGACGGGATT
B5: UGGAUUG (DNA:RNA)
RNA: B1 RNA with A25U, A29U, A30U, A31G
DNA 1: CAATCTGAATTCCGGTCTCCC
DNA 2: TGGTGGCTACGACGGGATT
B6: CCGACCC (DNA:RNA)
RNA: B1 RNA with A25C, G26C, A29C, A30C, A31C
DNA 1: CAATCTGAATTCCGGTCTCCC
DNA 2: TGGTGGCTACGACGGGATT
B7: UGCGCGA (DNA:RNA)
RNA: B1 RNA with A25U, G27C, A28G, A29C, A30G
DNA 1: CAATCTGAATTCCGGTCTCCC
DNA 2: TGGTGGCTACGACGGGATT
B8: GACUGAC (DNA:RNA)
RNA: B1 RNA with A25G, G26A, G27C, A28U, A29G, A31C
DNA 1: CAATCTGAATTCCGGTCTCCC
DNA 2: TGGTGGCTACGACGGGATT
B9: ACAGAUG (DNA:RNA)
RNA: B1 RNA with G26C, G27A, A28G, A30U, A31G
DNA 1: CAATCTGAATTCCGGTCTCCC
DNA 2: TGGTGGCTACGACGGGATT
B10: CCUCCAG (DNA:RNA)
RNA: B1 RNA with A25C, G26C, G27U, A28C, A29C, A31G
DNA 1: CAATCTGAATTCCGGTCTCCC
DNA 2: TGGTGGCTACGACGGGATT
B11: ACUAGGU (DNA:RNA)
RNA: B1 RNA with G26C, G27U, A29G, A30G, A31U
DNA 1: CAATCTGAATTCCGGTCTCCC
DNA 2: TGGTGGCTACGACGGGATT
B12: UGUACUC (DNA:RNA)
RNA: B1 RNA with A25U, G27U, A29C, A30U, A31C
DNA 1: CAATCTGAATTCCGGTCTCCC
DNA 2: TGGTGGCTACGACGGGATT
B13: AGGUAAC (DNA:RNA)
RNA: B1 RNA with A28U, A31C
DNA 1: CAATCTGAATTCCGGTCTCCC
DNA 2: TGGTGGCTACGACGGGATT
B14: AGGGGUG (DNA:RNA)
RNA: B1 RNA with A28G, A29G, A30U, A31G
DNA 1: CAATCTGAATTCCGGTCTCCC
DNA 2: TGGTGGCTACGACGGGATT
B15: CCAAGGA (DNA:RNA)
RNA: B1 RNA with A25C, G26C, G27A, A29G, A30G
DNA 1: CAATCTGAATTCCGGTCTCCC
DNA 2: TGGTGGCTACGACGGGATT
B16: AGUACGG (DNA:RNA)
RNA: B1 RNA with G27U, A29C, A30G, A31G
DNA 1: CAATCTGAATTCCGGTCTCCC
DNA 2: TGGTGGCTACGACGGGATT
B17: AAAAUAC (DNA:RNA)
RNA: B1 RNA with G26A, G27A, A29U, A31C
DNA 1: CAATCTGAATTCCGGTCTCCC
DNA 2: TGGTGGCTACGACGGGATT
B18: GUCCUGC (DNA:RNA)
RNA: GGGAGACCGGAAUUCAGAUUGUCCGUCCUGCUUAAAUCCCGUCGUAGCCACCA
DNA 1: CAATCTGAATTCCGGTCTCCC
DNA 2: TGGTGGCTACGACGGGATT
B19: UAAAGUG (DNA:RNA)
RNA: B1 RNA with A25U, G26A, G27A, A29G, A30U, A31G
DNA 1: CAATCTGAATTCCGGTCTCCC
DNA 2: TGGTGGCTACGACGGGATT
B20: UCUAAGC (DNA:RNA)
RNA: B1 RNA with A25U, G26C, G27U, A30G, A31C
DNA 1: CAATCTGAATTCCGGTCTCCC
DNA 2: TGGTGGCTACGACGGGATT
B21: ACCCGCU (DNA:RNA)
RNA: B18 RNA with G25A, U26C, U29G, G30C, C31U
DNA 1: CAATCTGAATTCCGGTCTCCC
DNA 2: TGGTGGCTACGACGGGATT
B22: GGAAUUU (DNA:RNA)
RNA: B1 RNA with A25G, G27A, A29U, A30U, A31U
DNA 1: CAATCTGAATTCCGGTCTCCC
DNA 2: TGGTGGCTACGACGGGATT
B23: UGGAGUA (DNA:RNA)
RNA: B1 RNA with A25U, A29G, A30U
DNA 1: CAATCTGAATTCCGGTCTCCC
DNA 2: TGGTGGCTACGACGGGATT
B24: CGCUCCG (DNA:RNA)
RNA: B1 RNA with A25C, G27C, A28U, A29C, A30C, A31G
DNA 1: CAATCTGAATTCCGGTCTCCC
DNA 2: TGGTGGCTACGACGGGATT
B25: CUCGCAC (DNA:RNA)
RNA: B18 RNA with G25C, C28G, U29C, G30A
DNA 1: CAATCTGAATTCCGGTCTCCC
DNA 2: TGGTGGCTACGACGGGATT
B26: GUACUGC (DNA:RNA)
RNA: B18 RNA with C27A
DNA 1: CAATCTGAATTCCGGTCTCCC
DNA 2: TGGTGGCTACGACGGGATT
B27: UUAAGGU (DNA:RNA)
RNA: B18 RNA with G25U, C27A, C28A, U29G, C31U
DNA 1: CAATCTGAATTCCGGTCTCCC
DNA 2: TGGTGGCTACGACGGGATT
B28: CCUAGGA (DNA:RNA)
RNA: B1 RNA with A25C, G26C, G27U, A29G, A30G
DNA 1: CAATCTGAATTCCGGTCTCCC
DNA 2: TGGTGGCTACGACGGGATT
B29: AUCGUAG (DNA:RNA)
RNA: B18 RNA with G25A, C28G, G30A, C31G
DNA 1: CAATCTGAATTCCGGTCTCCC
DNA 2: TGGTGGCTACGACGGGATT
B30: GUCCUCG (DNA:RNA)
RNA: B18 RNA with G30C, C31G
DNA 1: CAATCTGAATTCCGGTCTCCC
DNA 2: TGGTGGCTACGACGGGATT
B31: AUGGUAU (DNA:RNA)
RNA: B1 RNA with G26U, A28G, A29U, A31U
DNA 1: CAATCTGAATTCCGGTCTCCC
DNA 2: TGGTGGCTACGACGGGATT

What follows are binders tested against T1, RBFOX1 RRM (assay: EMSA; HiTS-Eq, 1 nM pool, 10 min; buffer printed only for the single-RNA assays: 10 mM Tris pH 7.5, 150 mM NaCl, 3.4 mM EDTA, 0.001% NP-40, 30 C). Details: tags: His6 N-terminal (pET28a); label: 5' 32P.
Summary of the method: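 Purified RbFox RRM (wild type or mutant) was equilibrated for 10 min in 50 µL with 1 nM of a 5′-radiolabelled pool of RNA with 7 randomized nucleotides, its flanks annealed to DNA oligonucleotides, across increasing protein concentrations. Free RNA was separated by 8% native PAGE, excised, reverse-transcribed, PCR-barcoded and sequenced on an Illumina HiSeq 2500. Relative association constants came from read-count changes of each variant against the control reaction, normalised to the cognate motif.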

Binder	binding signal
B1	0.00624 KA relative to UGCAUGU
B2	0.0151 KA relative to UGCAUGU
B3	0.0166 KA relative to UGCAUGU
B4	0.00772 KA relative to UGCAUGU
B5	0.0448 KA relative to UGCAUGU
B6	0.0013 KA relative to UGCAUGU
B7	0.0211 KA relative to UGCAUGU
B8	0.0236 KA relative to UGCAUGU
B9	0.00623 KA relative to UGCAUGU
B10	0.00545 KA relative to UGCAUGU
B11	0.00716 KA relative to UGCAUGU
B12	0.00909 KA relative to UGCAUGU
B13	0.0143 KA relative to UGCAUGU
B14	0.0282 KA relative to UGCAUGU
B15	0.0126 KA relative to UGCAUGU
B16	0.00845 KA relative to UGCAUGU

Binder	binding signal
B17	0.000357 KA relative to UGCAUGU
B18	0.0203 KA relative to UGCAUGU
B19	0.00935 KA relative to UGCAUGU
B20	0.00771 KA relative to UGCAUGU
B21	0.00342 KA relative to UGCAUGU
B22	0.0185 KA relative to UGCAUGU
B23	0.0179 KA relative to UGCAUGU
B24	0.00772 KA relative to UGCAUGU
B25	0.0113 KA relative to UGCAUGU
B26	0.017 KA relative to UGCAUGU
B27	0.0121 KA relative to UGCAUGU
B28	0.00895 KA relative to UGCAUGU
B29	0.00756 KA relative to UGCAUGU
B30	0.0155 KA relative to UGCAUGU
B31	0.00785 KA relative to UGCAUGU
